Assay results published in PubChem BioAssay AID1240 (Sanford-Burnham Center for Chemical Genomics, 2008).
Out of some 50,000 compounds screened, about 800 (1.6%) showed an effect of 50% or more. The list shows a part of the results.

These compounds were tested against Bcl-2-like protein 10 (Homo sapiens) (UniProt Q9HD36) (assay: TR3 peptide-Bcl-B binding displacers, biochemical primary FP assay, phenotype converters (AID 1240;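 further: 0% = Bcl-B with tracer peptide and DMSO and 100% = tracer peptide lacking Bcl-B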)). Details: GST-Bcl-B / FITC-TR3 peptide fluorescence polarization; stronger effect = higher value; compound at 3.75 mg/L.
UniProt Q9HD36, sequence (Q9HD36 whole entry, looked up): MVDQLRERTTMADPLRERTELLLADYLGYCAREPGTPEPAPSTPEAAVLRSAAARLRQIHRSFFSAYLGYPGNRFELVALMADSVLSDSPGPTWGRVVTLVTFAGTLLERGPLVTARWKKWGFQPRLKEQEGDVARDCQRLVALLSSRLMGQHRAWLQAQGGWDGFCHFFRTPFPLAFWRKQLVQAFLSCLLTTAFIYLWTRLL

Compound | displacement [%]
Cc1cccc(NCN2C(=O)CSC2=O)c1 | 3.1
CCCNC(=O)OCC12COC3c4ccccc4OC(C)(CC1C)C3C2C (stereo unspecified) | -7.5
C(=Nc1ccc2c(c1)OCCOCCOc1cc(N=Cc3ccccc3)ccc1OCCOCCO2)c1ccccc1 | 5.3
CS(=O)(=O)N(Cc1ccccc1)c1ccccc1C(=O)O | 10.5
CCCC(C)NC(=O)c1ccc(OC)c([N+](=O)[O-])c1 (stereo unspecified) | 16.4
CCOC(=O)c1c(NC(=O)C2CCCCC2)sc(C(=O)Nc2ccccc2F)c1C | 24.1
COc1ccc(Cl)cc1C(=O)Nc1cc2nn(-c3ccc(C)cc3)nc2cc1C | -2
COc1ccccc1/C=N/NC(=O)C(C)Oc1ccc(Cl)cc1 (stereo unspecified) | -2.9
C=COCCNC(=O)C(=O)Nc1ccccc1 | -0.6
C=CCOc1c(Cl)cc(/C=C2/C(=O)NN(c3cccc(Br)c3)C2=O)cc1OC | 2.6
O=C(Cc1nc2ccccc2[nH]c1=O)Nc1cccc(C(F)(F)F)c1 | -2
O=C(Nc1ccccc1Oc1ccccc1)c1cc2cc(Cl)cc(Cl)c2oc1=O | 12.8
COc1ccc(/C=C/C(=O)c2ccc(Br)cc2)c(OC)c1 | 10.2
COC(=O)C1=NNC2(C)C(=O)N(c3ccccc3OC)C(=O)C12 (stereo unspecified) | -3.9
O=C(NCCc1ccc(F)cc1)C(=O)Nc1ccccc1 | 4.4
Cc1ccc(-n2nc3ccc(NC(=O)c4ccccc4F)cc3n2)cc1 | 3.9
Cc1ccc(OCC(=O)Nc2cccc(S(N)(=O)=O)c2)cc1C | -2.7
Nc1ccc2nc(SCC(=O)N3CCOCC3)sc2c1 | -0.3
O=C(N/N=C/c1ccc([N+](=O)[O-])cc1)c1cc(-c2ccc(Cl)cc2)n[nH]1 | -8.7
CCNC(=S)NNC(=O)c1cc(-c2ccccc2)nc2ccccc12 | -13.1
Cc1ccc(C#N)c(SCC(N)=O)n1 | -9.8
Cc1ccc(/C=C/C(=O)Nc2cccc(C(F)(F)F)c2)o1 | 0.3

Compound | displacement [%]
Cc1cccc(N2C(=O)/C(=C/c3ccccc3[N+](=O)[O-])SC2=S)c1C | 3.2
Cc1ccc(-c2nc3ncccc3o2)cc1NC(=O)C1CCCCC1 | 4.5
CCOC(=O)C1=C(C)N(c2ccccc2)C(=S)NC1c1ccc(OC)cc1 (stereo unspecified) | -16.5
COc1ccc(OC)c(C(O)c2nc3ccccc3n2C(C)C)c1 (stereo unspecified) | -11.6
COCCCNC(=O)CN(c1ccc(Br)cc1)S(C)(=O)=O | 3.3
Cc1ccccc1C(=O)Nc1cccc(NC(=O)c2ccc(-c3cccc(Cl)c3)o2)c1 | 0.6
CCc1cc2c(s1)SC(c1ccc([N+](=O)[O-])cc1)NC2=O (stereo unspecified) | 12.6
CCOC(=O)Cc1cc(OC)c(OC)cc1/C(C)=N/Nc1ccccc1 | -6
CCC(CO)N=CC1=C(O)C(C(=O)c2ccccc2)CCC1=O (stereo unspecified) | 14.8
CN1C(=O)/C(=C2\SC(=S)N(C3CCCCC3)C2=O)c2ccccc21 | -3.1
COC(=O)C1=C(C)N(c2ccc(Cl)cc2)/C(=C\c2ccc(OCC(=O)Nc3ccccc3OC)cc2)C1=O | 10.4
C(=N\Nc1nncn1/N=C/c1ccccc1)/c1ccccc1 | -0.9
Cc1cc(C)nc(NC(=O)c2cc(-c3ccc(C)s3)nc3ccccc23)c1 | 13.1
Cc1ccc(OCC(=O)Oc2ccc(Cl)cc2C)cc1C | 8.7
C=CCc1cccc2cc(C(=O)Nc3ccc([N+](=O)[O-])cc3C)c(=O)oc12 | -3.3
Cc1ccc(-n2c(O)c(/C=N/N(C)C)c3ccccc3c2=O)cc1 | 1.8
CCOc1cc(/C=N/n2cnnc2)ccc1OCCOc1ccc(C(C)CC)cc1 (stereo unspecified) | -1
Cc1ccc(OCC(=O)NNC(=O)c2cccc(F)c2)c(C)c1 | 1.1
Nc1nc(/C=C/c2cccc([N+](=O)[O-])c2)cc(/C=C/c2cccc([N+](=O)[O-])c2)n1 | 15.4
Cc1ccc(C(=O)N/C(=C\c2cccc([N+](=O)[O-])c2)C(=O)Nc2ccc(C)c(C)c2)cc1 | -0.9
O=C(CSCC(=O)Nc1ccccc1[N+](=O)[O-])Nc1ccccc1 | -17.7
CN1C(=O)c2ccc(NCCN3C(=O)c4ccccc4C3=O)cc2C1=O | -5.3

Compound | displacement [%]
CCOC(=O)C1=C(O)/C(=C/c2cccc(Br)c2)SC1=Nc1ccc([N+](=O)[O-])cc1 | 63.1
COc1ccccc1-c1nnc(NC(=O)c2ccc(F)cc2)s1 | 0.7
COc1ccccc1-c1c(C#N)c(N)c(C#N)c2c1CCCC2 | -1.1
O=C(NC1CS/C(=C/c2ccccc2)C1O)c1ccccc1 (stereo unspecified) | 1.2
CC1=C(C(=O)Nc2ccc(Cl)cc2)C(c2cccc([N+](=O)[O-])c2)NC(=S)N1 (stereo unspecified) | 11.6
COc1ccc(NC(=O)C(=O)NCc2ccco2)cc1OC | 14.1
Cc1ccc(NC(=O)c2cc3ccccc3o2)cc1 | 2.5
COc1ccc(/C=C(\NC(=O)c2ccc(Cl)cc2)C(=O)NCC2CCCO2)cc1OC (stereo unspecified) | 8.3
COc1ccc(C(=O)/C=C/c2cn(Cc3ccccc3)c3ccccc23)cc1 | 9.7
O=C(O)c1ccc(-c2ccc(-c3nc4sc5c(c4c(=O)[nH]3)CCCC5)o2)cc1 | -32.4
COc1ccc(CC(=O)Nc2ccc(Nc3ccccc3)cc2)cc1OC | 0
CCCCN(CCCC)S(=O)(=O)c1ccc(Cl)cc1 | 11.4
CC(C)OC(C(=O)c1ccccc1)c1ccccc1 (stereo unspecified) | 10
O=C(NNc1nc2ccccc2s1)c1cccnc1 | -21.3
COc1cc([N+](=O)[O-])ccc1NC(=O)c1cc(Cl)ccc1OC | 1.8
CN(/C(=N/S(=O)(=O)c1ccccc1)c1ccccc1)S(=O)(=O)c1ccccc1 | 2.9
O=C(/C=C/c1ccc(Cl)cc1)Nc1ccc(NC(=O)c2ccco2)cc1 | 5.8
O=C(Nc1ccccc1)C1CC(=O)N(c2cccc([N+](=O)[O-])c2)C1 (stereo unspecified) | -4.9
Cc1cccc(NC(=O)c2ccccc2NC(=O)c2ccccc2)c1 | -4.2
Cc1cc(C(=O)N/N=C/c2ccccc2[N+](=O)[O-])n[nH]1 | -13.5
Clc1ccc(Oc2nc3ccccc3n3cnnc23)cc1 | 15.8
O=C(Nc1cc(C(F)(F)F)cc(C(F)(F)F)c1)c1ccc2c(c1)OCCO2 | 8.8

Compound | displacement [%]
O=C1/C(=C\c2ccccc2OS(=O)(=O)c2ccccc2[N+](=O)[O-])SC(=S)N1Cc1ccccc1 | -1.4
CC(O)C(=O)NS(=O)(=O)c1ccccc1 (stereo unspecified) | 9.6
c1ccc(Cn2ncc3c(N4CCN(c5ccccn5)CC4)ncnc32)cc1 | -7.6
COc1ccc2c(c1)-c1c(sn(-c3ccc(OC)c(OC)c3)c1=S)C(C)(C)N2 | 15.4
COCCNC(=O)CN(c1ccc(C)cc1)S(C)(=O)=O | 9.9
O=C(Nc1nc(-c2ccccc2)cs1)c1ccc2c(c1)OCO2 | 10.2
COc1ccc(C(=O)Nc2ccc(S(=O)(=O)Nc3cc(OC)ncn3)cc2)c(OC)c1 | 10.1
O=C(NCCCO)Nc1ccc2nc(-c3ccccc3)c(-c3ccccc3)nc2c1 | -8.9
COc1ccc(C2CC(C(F)(F)F)n3nc(C(=O)N4CCCC4)c(Cl)c3N2)cc1OC (stereo unspecified) | 7
COc1ccccc1C(=O)Nc1ccc(Br)cc1 | 12.4
O=C(Nc1cccc(Cl)c1Cl)c1ccc(CN2CCc3ccccc3C2)cc1 | -2.7
COc1ccc(OC)c(NC(=O)C(=O)N/N=C/c2ccc(OC)cc2OC)c1 | 12.9
CCN(CC)c1ccc(/C=N/NC(=O)/C(=C\c2ccc3c(c2)OCO3)NC(=O)c2ccccc2)cc1 | 30.3
O=C1CSC(=S)N1c1ccc(F)c(Cl)c1 | 8.7
CCOc1ccccc1NC(=O)CN(c1cc(OC)ccc1OC)S(C)(=O)=O | 13.1
Cc1ccc(/C=C2/SC(=S)N(NC(=O)c3ccccc3C)C2=O)cc1 | -10.3
O=C(Nc1ccc(OC(F)(F)F)cc1)c1cnn2c(C(F)(F)F)cc(-c3ccco3)nc12 | -7.5
O=C(N/N=C/c1cc2ccccc2[nH]1)c1ccccc1 | 8.7
CCCCNC(=O)n1ccc(C(=O)Nc2ccc(C)cc2C)n1 | 4.5
COc1cc(OC)c([N+](=O)[O-])cc1/C=C1/C(=O)NC(=O)N(c2ccc(Br)cc2)C1=O | 8.8
COc1ccc(C/C(N)=N/OC(=O)c2cccc([N+](=O)[O-])c2)cc1 | 8.1
O=c1cc(-c2ccc([N+](=O)[O-])cc2)nc2cc(-c3cccc(F)c3)[nH]n12 | 13.2

Compound | displacement [%]
CCOc1cc(-c2ccc3c(c2)OCO3)cc(=O)c2c(C)oc(C)c12 | 4.7
Clc1ccccc1CN1CCN(N=Cc2ccc(Br)cc2)CC1 | -1.3
Cc1ccc(C)c(-c2csc(NC(=O)C3C4CCC(C4)C3C(=O)O)n2)c1 (stereo unspecified) | 1
CCOc1c(Cl)cc(/C=C2\C(=O)NC(=O)N(c3ccc(C)cc3)C2=O)cc1OC | -11.3
O=c1oc(/C=C\c2ccccc2)nc2ccc(Br)cc12 | 10.7
Oc1ccccc1C1=Nc2ccccc2N=C(C(F)(F)F)C1 | 4
COc1ccc(C(=O)Nc2ccccc2C(=O)Nc2ccc(C(=O)O)cc2)cc1 | 25.2
O=S(=O)(c1ccccc1)N1CCN(C/C=C/c2ccccc2)CC1 | -2.3
Cc1ccc(/C=C2\N=C(c3ccc(Cl)cc3)OC2=O)o1 | 11.6
O=C1/C(=C/c2c(F)cccc2Cl)SC(=S)N1CCc1ccccc1 | 12.1
C=CCN1C(=O)/C(=C\C(Br)=C\c2ccccc2)SC1=S | 6.5
CCCOc1ccc(N2C(=O)CC(N(Cc3ccco3)C(=S)Nc3ccccc3)C2=O)cc1 (stereo unspecified) | -3.2
O=C1C(=O)N(c2cccc(Br)c2)C(c2ccc([N+](=O)[O-])cc2)/C1=C(/O)c1ccccc1 (stereo unspecified) | -0.1
CC(=O)Nc1cc(C(=O)O)cc(C(=O)O)c1 | -3.5
COc1ccc(N(CC(=O)Nc2ccccc2Cl)S(=O)(=O)c2ccc(OC)c(OC)c2)cc1 | -41.6
Cc1ccccc1-n1c(O)c(C=NCCCn2ccnc2)c(=O)[nH]c1=O | -3.4
O=C(Nc1ccc(-c2nc3ncccc3o2)cc1)c1ccc(Br)o1 | -1.9
CCN(CC)c1ccc(N2C(=O)/C(=C/c3ccccc3Cl)SC2=S)cc1 | 0.3
